The full ranking holds about 110,000 compounds; the median of “z-score” is about -0.1, and the highest 2% start at about 2. Some of the results follow. Calls of active or inactive are those of the source.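 The calls were made as follows: active = z-score in the third read window above 3 or below -3; inactive = the rest.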
target: Metabotropic glutamate receptor 8 (Rattus norvegicus) (UniProt P70579); assay: mGluR8 Gi/Go-coupled signaling modulation – cell-based, rat, thallium flux, HTS, primary screen (AID 488969); conditions: HEK293 rat mGluR8, GIRK (G protein-gated inwardly rectifying potassium channel) thallium flux, FluoZin2; at 10 µM; stronger effect = higher value; submaximal glutamate (EC20) added with thallium
Chain of UniProt P70579 (P70579 whole entry, looked up): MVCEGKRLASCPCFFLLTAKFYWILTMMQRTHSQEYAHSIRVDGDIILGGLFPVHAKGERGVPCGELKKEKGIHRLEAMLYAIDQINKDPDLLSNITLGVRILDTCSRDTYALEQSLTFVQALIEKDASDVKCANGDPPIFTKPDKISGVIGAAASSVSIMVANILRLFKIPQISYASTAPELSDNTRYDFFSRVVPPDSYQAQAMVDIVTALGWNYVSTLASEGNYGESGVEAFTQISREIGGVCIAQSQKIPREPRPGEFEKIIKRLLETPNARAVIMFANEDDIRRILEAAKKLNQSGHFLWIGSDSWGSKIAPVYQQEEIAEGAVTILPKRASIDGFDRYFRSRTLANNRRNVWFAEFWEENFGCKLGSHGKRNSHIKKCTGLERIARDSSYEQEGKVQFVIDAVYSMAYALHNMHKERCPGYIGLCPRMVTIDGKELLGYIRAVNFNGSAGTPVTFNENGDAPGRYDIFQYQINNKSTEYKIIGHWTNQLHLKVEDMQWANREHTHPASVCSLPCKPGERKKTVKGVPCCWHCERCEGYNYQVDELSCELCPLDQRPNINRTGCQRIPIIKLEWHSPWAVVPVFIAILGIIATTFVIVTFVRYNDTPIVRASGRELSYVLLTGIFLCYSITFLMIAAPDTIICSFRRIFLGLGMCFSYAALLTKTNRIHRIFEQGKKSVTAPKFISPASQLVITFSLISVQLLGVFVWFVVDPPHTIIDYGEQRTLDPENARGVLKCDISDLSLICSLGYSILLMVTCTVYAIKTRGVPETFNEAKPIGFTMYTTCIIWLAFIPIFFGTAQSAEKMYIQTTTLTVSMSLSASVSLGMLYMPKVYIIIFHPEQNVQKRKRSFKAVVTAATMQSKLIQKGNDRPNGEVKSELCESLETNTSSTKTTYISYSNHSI

Row | Compound | z-score
1 | CCc1c(C)nc(SCC(=O)Nc2c(C)n(C)n(-c3ccccc3)c2=O)[nH]c1=O | -0.337
2 | CC(=O)n1c2c(c3ccccc31)OC(N)=C(C#N)C2c1cccc(Cl)c1Cl (stereo not drawn) | 0.486
3 | Nc1nnc(SCC(=O)OCC(=O)Nc2ccc(Br)cc2)s1 | -0.137
4 | O=C(COc1ccccc1)N(Cc1ccccc1)c1nc(-c2ccccc2)cs1 | -0.00319
5 | c1ccc2c(c1)ncn2-c1ncnc2sc3c(c12)CCCC3 | -0.599
6 | CCn1c(=S)sc2c(=O)n(-c3ccccc3)c(SCC(=O)NCc3ccco3)nc21 | -0.665
7 | CCOC(=O)N1CCN(C(=O)c2cc(-n3cnnc3)ccc2Cl)CC1 | -0.285
8 | Cc1c(Cl)c(=O)oc2cc(OCC(=O)NCc3cccs3)ccc12 | -0.66
9 | CN(C)[C@@H]1CCC[C@H]1OC(=O)C(c1ccccc1)c1ccccc1 | -1.41
10 | CCCCn1nc2cc(C(=O)NCCCCc3ccccc3)ccc2c1OCC | -0.142
11 | CCOC(=O)N/N=C\C=C\c1ccco1 | 0.00855
12 | Cc1ccc(Cl)cc1NC(=S)N(CCCN1CCOCC1)Cc1ccccn1 | 0.661
13 | CCN(CC)CCOc1ccc2c(c1)C(=NNC(=O)c1ccccn1)c1cc(OCCN(CC)CC)ccc1-2 | -0.168
14 | Cc1cccc(NC(=O)N2CCN(Cc3ccccc3)CC2)c1 | -0.243
15 | CC(=O)c1ccc(NC(=O)/C=C/c2ccc(C)cc2)cc1 | -0.268
16 | O=C(NCc1nnc(SCc2ccccc2)n1-c1ccc(F)cc1)C12CC3CC(CC(C3)C1)C2 | -0.149
17 | Cc1ncc([N+](=O)[O-])n1CCOC(=O)c1ccccc1 | 0.178
18 | CC(=O)N1c2c(cc(Br)cc2S(=O)(=O)NCC2COc3ccccc3O2)CC1C (stereo not drawn) | 0.248
19 | Cc1oc2c(c1C(=O)Nc1ccc(C(=O)O)cc1)CCCC2 | -0.205
20 | CCCCC(=O)Nc1ccccc1C(=O)OCC(=O)c1ccc2c(c1)OCCO2 | -0.775
21 | CCN(CC)c1ccc(S(=O)(=O)Nc2cc(Cl)ccc2Cl)cc1NC(=S)NC(=O)C1CCCC1 | -0.362
22 | Cc1ccccc1NC(=O)CC1SC(=O)N(c2ccccc2)C1=O (stereo not drawn) | 0.298

Row | Compound | z-score
23 | Cc1cc(C(=O)Nc2c(C)nn(Cc3ccccc3Cl)c2C)no1 | -0.574
24 | CC1CCN(CCCn2c(=S)[nH]c3ccc(N4CCOCC4)cc3c2=O)CC1 | -0.134
25 | CCNC(=O)C1CC(=O)N(CC)C(=Nc2cc(Cl)c(O)c(Cl)c2)S1 (stereo not drawn) | 0.28
26 | O=C(NC(Cc1ccccc1)C(=O)O)c1ccc(S(=O)(=O)N2CCOCC2)cc1 (stereo not drawn) | -0.179
27 | COc1cccc(C(=O)N2CCN(S(=O)(=O)Cc3ccccc3)CC2)c1OC | 1.15
28 | CN(C)CCNS(=O)(=O)c1ccc(Cl)cc1 | 1.34
29 | Cc1ccccc1-c1nnc(SCC(=O)NCc2ccc3c(c2)OCO3)n1C | 0.579
30 | COc1ccc(CC(=O)Nc2ccc(OC)c(NC(=O)c3ccco3)c2)cc1 | -1.8
31 | COc1ccc(NS(=O)(=O)c2cc(NC(=O)/C=C/c3cccs3)ccc2N2CCOCC2)cc1 | 0.172
32 | O=C(c1sc2ccccc2c1Cl)N(Cc1ccco1)C1CCS(=O)(=O)C1 (stereo not drawn) | 0.882
33 | Cc1ccc(S(=O)(=O)c2c(C)cc(-c3ccccc3)[nH]c2=O)cc1 | 0.0626
34 | Cc1oc(-c2ccccc2F)nc1CN1CCC(C(=O)NC2CCCc3ccccc32)CC1 (stereo not drawn) | -0.703
35 | Cc1cc(NC(=O)c2cc3ccccc3o2)cc(C)c1OCC(=O)N1CCOCC1 | 0.0146
36 | CCC(Sc1nc(N)cc(=O)[nH]1)C(=O)NC(C(=O)OC)c1ccccc1 (stereo not drawn) | -0.0652
37 | COc1cccc(C2/C(=C(/O)c3ccc(F)cc3)C(=O)C(=O)N2CCN(C)C)c1 (stereo not drawn) | -0.408
38 | COC(=O)Nc1ccc(OCc2ccccc2)cc1 | 0.466
39 | Cc1cccc(NC(=S)NC2CC3CCCC(C2)N3Cc2cccs2)c1 (stereo not drawn) | -0.122
40 | COc1ccc(CC(=O)Nc2ccc(-c3cn4cccc(C)c4n3)cc2)cc1OC | 1.68
41 | CCOc1cc(/C=N/NC(=O)CSc2nnc(C)s2)ccc1OCc1ccccc1Cl | -0.32
42 | COCc1[nH]nc2c1C(C1C=CCCC1)C(C#N)=C(N)O2 (stereo not drawn) | -0.511
43 | CCC(C(=O)O)n1c(C(F)(F)F)nc2ccccc21 (stereo not drawn) | -0.136
44 | CCn1cc(C(=O)NCC2CCCO2)c(=O)c2cc(S(=O)(=O)N(C)C)ccc21 (stereo not drawn) | -1.79

Row | Compound | z-score
45 | Cc1ccc(C)c(S(=O)(=O)N2CCN(CC(=O)Nc3ccc4c(c3)OCCO4)CC2)c1 | -0.332
46 | Cc1ccc(-c2nn(-c3ccccc3)cc2/C=C(\C#N)C(=O)NCc2ccccc2)cc1 | -0.163
47 | CC(=O)NC1=NN(C(C)=O)C2(CCCCC2)S1 | -0.108
48 | COc1ccccc1Nc1nc(-c2sc(NC(=O)C(C)(C)C)nc2C)cs1 | -0.388
49 | CC(C)Cn1c2nc3ccccc3nc2c2c(=O)n(CCN3CCOCC3)cnc21 | -1.1
50 | O=C(CCN1CCOCC1)c1ccc2c(c1)OCCO2 | -0.327
51 | COc1cc2c(cc1OC)-c1cc(NC3CC3)nc(=O)n1CC2 | -0.236
52 | O=C1CN(C(=O)CN2CCOCC2)C(c2ccccc2)c2cc(Br)ccc2N1 (stereo not drawn) | 0.0633
53 | O=C(c1ccc(Cl)cc1)N1CCC(O)(CSc2ccccc2)CC1 | -0.134
54 | COc1ccc(/C(N)=N/OC(=O)Cc2ccccc2OC)cc1 | -0.0907
55 | c1cc(-c2nnc3n2CCCCC3)ccn1 | 0.91
56 | Cc1[nH]nc2c1C(c1cn[nH]c1-c1ccc(F)cc1)C(C#N)=C(N)O2 (stereo not drawn) | -0.211
57 | CC(CCc1ccccc1)NC(=O)CN1CCOc2ccccc21 (stereo not drawn) | -0.379
58 | CC(C)Cc1cc(C(=O)N2CCN(C(c3ccccc3)c3ccccc3)CC2)no1 | 0.161
59 | CC(C)(C)n1nnnc1C(c1ccc(Cl)cc1)N1CCCc2ccccc21 (stereo not drawn) | -0.368
60 | O=C(CCN1C(=O)c2ccccc2C1=O)Nc1ccc(S(=O)(=O)N2CCOCC2)cc1 | 0.0303
61 | O=C(COc1cccc2ccccc12)NNC(=O)Nc1ccccc1 | -0.0431
62 | O=C(Nc1ccccc1N1CCCCC1)c1ccco1 | -0.657
63 | COc1ccc(-c2nc(C(F)(F)F)c(OC)o2)cc1OC | 0.715
64 | O=S(=O)(Nc1ccc(N2CCCCC2)cc1)c1ccccc1 | -0.44
65 | COc1ccc(C2N(S(=O)(=O)c3ccc(C)cc3)CCN2S(=O)(=O)c2ccc(C)cc2)cc1 | -0.475
66 | C/C(=N\NC(=O)c1cccc(Cl)c1)c1cccc(NC(=O)c2ccco2)c1 | -0.35

Row | Compound | z-score
67 | Cc1cc(SCC(=O)N/N=C/c2ccc(O)cc2O)c(C)cc1Br | -0.121
68 | O=C(c1ccco1)N1CCN(C(=O)c2cc(-c3ccccn3)nc3ccccc23)CC1 | 0.0452
69 | Cc1cc(C(=O)CSc2nc3ccccc3[nH]2)c(C)n1CC1CCCO1 (stereo not drawn) | -0.0889
70 | O=C1NCCCC1C(=O)N/N=C/c1ccccc1 (stereo not drawn) | 0.00752
71 | CCN1CCN(Cc2nc3c(c(=O)n(C)c(=O)n3C)n2Cc2ccccc2Cl)CC1 | -0.373
72 | CC(=O)OCc1nc2sc3c(c2c(=O)[nH]1)CCCC3 | -0.0731
73 | CC(C)C(=O)OCCN=C1NS(=O)(=O)c2ccccc21 | -0.26
74 | Cc1ccc2nc(N(CCCN(C)C)C(=O)CCc3ccccc3)sc2c1 | 0.103
75 | CCCN=C(Nc1ccc(Cl)cc1)c1cccnc1 | -0.171
76 | CCCOC(=O)c1ccc(NS(=O)(=O)c2cccs2)cc1 | 0.0163
77 | CCOC(=O)CCCNc1ccc([N+](=O)[O-])cc1[N+](=O)[O-] | -0.257
78 | CCn1cc(C(=O)NCc2ccc(C)o2)c2cc(OC)c(OC)cc2c1=O | -0.716
79 | CCOC(=O)c1cnc2nc(COc3ccccc3)[nH]n2c1=O | -0.323
80 | Cc1ccc(NC(=O)c2ccc(COc3ccc4c(c3)CCC4)cc2)c(C)c1 | active: 3.36
81 | COc1cccc(-c2cc(C(F)(F)F)nc(-n3cc(Cl)cn3)n2)c1 | -0.0945
82 | O=C(NN=C1C2CC3CC(C2)CC1C3)c1ccncc1 | 0.281
83 | CCOc1ccc(NC(=O)CN2CCN(CC(=O)Nc3ccc(OC)cc3)CC2)cc1 | -0.089
84 | Cc1noc(NC(=O)c2ccccc2Cl)c1C#N | 0.0343
85 | S=C(NCCN1CCOCC1)Nc1ccc(Br)cc1 | -0.0801
86 | C=CCn1c(SCC(=O)c2c(N)n(C)c(=O)n(C)c2=O)nc2sc(CC)cc2c1=O | 1.42
87 | CCOC(=O)c1c(C)oc2ccc(OCc3cc(C(=O)OC)oc3C)cc12 | -0.239
88 | CSC1=NSC2=NC(=O)/C(=C/c3coc4ccc(O)cc4c3=O)C(=N)N12 | -0.47

Row | Compound | z-score
89 | O=C1S/C(=C\C=C\c2ccco2)C(=O)N1c1ccc(O)cc1 | -0.126
90 | CC(O)c1nc2ccccc2n1C/C=C/c1ccccc1 (stereo not drawn) | -0.28
91 | O=C(CC1S/C(=N/N=C/c2cccs2)NC1=O)Nc1ccc(Cl)cc1 (stereo not drawn) | -0.00056
92 | O=C(N1CCN(c2ccccc2)CC1)C12CC3CC(CC(C3)C1)C2 | -0.202
93 | COc1cc2c(cc1NC(=S)Nc1cccc(C)c1)oc1ccccc12 | -0.202
94 | O=C(Nc1ccc2c(c1)OCCO2)N1CCN(c2ccc(F)cc2)CC1 | 0.0129
95 | COc1ccc(-c2noc(COc3ccc4ccccc4c3Br)n2)cc1OC | 0.294
96 | COC(=O)c1cccc(COC(=O)c2ccc(CS(=O)(=O)c3ccc(C)cc3)cc2)c1 | -0.359
97 | COc1cc2[nH]c(=O)n(Cc3ccc(C(=O)NCCCN4CCN(C)CC4)cc3)c(=O)c2cc1OC | 0.511
98 | CCN=C1S/C(=C\c2sccc2C)C(=O)N1CC | -0.0378
99 | CC(=O)NCCC(=O)Nc1nc(-c2cccs2)c(-c2cccs2)s1 | -0.325
100 | Cc1cc(C(=O)OCC(=O)Nc2ccc(F)cc2)c(C)o1 | 2.45
101 | Fc1cccc(-c2cc3nc4c(c(N5CCN(c6cnccn6)CC5)n3n2)CCCC4)c1 | -0.0788
102 | CCc1c(C#N)c(SCCC(=O)Nc2cccc(OC)c2)nc2c1C(=O)CC(C)(C)C2 | -1.46
103 | COc1ccc(NC(=O)c2cc([N+](=O)[O-])nn2Cc2ccccc2)c(C)c1 | -0.187
104 | COC(=O)c1ccc(CSc2nnc(Nc3ccc(OC)cc3)s2)o1 | 0.755
105 | CN1CCCC1CCNC1C2CC3CC(C2)CC1C3 (stereo not drawn) | 0.306
106 | CCn1c(COc2ccccc2)nc2ccccc21 | -2.15
107 | CC(=O)Cc1nsc(NC(=O)c2cccs2)n1 | -0.0152
108 | Cc1ccc(S(=O)(=O)CCC(=O)N2CCc3ccccc32)cc1 | -0.684
